# Measurements as given in the supplement of paper PMC3334620.
# In all, about 33,000 sequences were measured (“E-score (-0.5 to 0.5)”: median about -0.056, highest 2% from about 0.38 on). Some of the results follow.
# Target: Stb4 (UniProt P50104)
# Experiment: PBM E-score (8-mer binding enrichment) (E-score (-0.5 to 0.5)); higher = stronger / more preferred TF binding; most listed sequences are background and not binding sites
# Conditions: protein concentration: 200 nM; construct: GST-DNA-binding domain
# Experimental: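 Universal 'all 10-mer' protein binding microarrays (Agilent AMADID 015681) probed with GST-tagged S. cerevisiae TFs (full-length or DBD) made by in vitro transcription/translation (PURExpress), about 100-200 nM. Bound TF was detected with fluorescent anti-GST. Each ungapped 8-mer (which stands for itself and its reverse complement) is scored by the PBM enrichment score (E-score), a modified Wilcoxon-Mann-Whitney statistic from -0.5 to +0.5, computed with the Universal PBM Analysis Suite. Scale: above 0.35 generally sequence-specific binding.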
row,Sequence,PBM E-score
1,GATGCTCA,0.0839
2,ATTCTGCG,-0.0218
3,TACGTCCA,-0.3
4,ACGGCGAA,0.0391
5,CATGAAAC,-0.0166
6,ATCTGTAC,0.155
7,CCCTGGTA,-0.182
8,GTCGACGA,0.0397
9,CAACCTAA,-0.227
10,GAAAGGCA,0.0635
11,GGAGTGGA,-0.0326
12,CTGGTGCC,-0.131
13,TGGACGAA,-0.284
14,ACGCCCGT,0.168
15,CGTTGAGC,-0.0224
16,ATACCATA,-0.239
17,AAATAACT,-0.0152
18,CGACACCG,0.272
19,AGCTATGG,-0.00676
20,CATTAAGG,-0.125
21,CAGCTATG,-0.417
22,CATGGACA,-0.261
23,CAGTCATA,-0.0983
24,TAGGGCAA,-0.0403
25,ACCCGACC,0.382

row,Sequence,PBM E-score
1,GATCGACC,0.207
2,CCGCTTGA,0.0378
3,GCGTGGCA,-0.123
4,AACAGGCG,-0.093
5,CAGTGTTA,0.0292
6,ATAATGTA,-0.141
7,ACTCTACG,-0.0896
8,ACAGCGTA,-0.143
9,GAAGGACA,0.0326
10,GGAAACCA,0.104
11,ACTTGTCG,0.109
12,CAATCAAC,0.0318
13,GGCCTGAA,-0.0159
14,AGTTTCTC,-0.00483
15,AAATGTAA,0.0853
16,CTACCCAA,-0.209
17,GTCGCGCA,-0.0321
18,CATGTCCA,-0.115
19,CTACAAAG,-0.0119
20,GATCAGAA,-0.21
21,AGTGACAG,-0.0545
22,AAGGGCAA,0.158
23,CATTCAGC,-0.116
24,ATACCCCG,0.205
25,GCTAAAGC,-0.0776

row,Sequence,PBM E-score
1,CCTAGATC,-0.243
2,ATTATTGG,0.0336
3,ACTCTGCA,-0.0748
4,CGTACAGC,0.109
5,CAGATCGG,0.235
6,GCGAGCCA,-0.083
7,CCCGTAAG,0.0679
8,ACCATTTC,-0.0482
9,AACCCATC,-0.0878
10,ATGGACAT,-0.105
11,CCTCTTTA,-0.157
12,GTAGTGTA,-0.17
13,GTTATTCA,-0.0861
14,ATGCACTA,-0.137
15,AGCGATAT,-0.172
16,GCCCTCCC,0.0602
17,CCAATTGA,-0.286
18,CAAAATAC,-0.00837
19,ATCACCTG,-0.00622
20,CGCCACCC,-0.0935
21,GGCAAGAC,0.0454
22,TAAGTGAA,0.00631
23,GACCCAAA,-0.0669
24,GCACTTCC,0.0806
25,GCAATCAC,0.186

row,Sequence,PBM E-score
1,AATGAGGC,-0.312
2,ATTCCCAC,-0.124
3,AAAGGCGG,-0.0456
4,TAGGCAAA,-0.231
5,AATAGGTC,-0.0225
6,ACCGATTA,0.326
7,AAACCACT,-0.209
8,GCCCGGAC,0.229
9,AATAGCGA,-0.136
10,CTGATTGA,-0.225
11,CCTCCGAA,0.352
12,GAACAGGC,-0.0136
13,AATACCTG,-0.0376
14,ACTCGCTA,0.00234
15,ACCTGATC,-0.104
16,TATCAAGA,-0.216
17,AACGCTTG,-0.176
18,TGTATAAA,-0.0485
19,AAACCCTC,0.045
20,ACAGAACC,-0.125
21,TACTATAA,-0.141
22,CAGCAACC,-0.00894
23,CGAGAGCG,0.0945
24,ACCCATAT,-0.117
25,GTTTACGA,-0.133

row,Sequence,PBM E-score
1,AACGATGA,-0.0144
2,CCGCTCCG,0.298
3,CAGGCGCG,-0.222
4,ACTCGGAG,0.362
5,ACATTTAA,0.0306
6,GCCCGCAC,0.0703
7,ACGATATG,-0.0289
8,ATGTACGC,-0.243
9,CTGACTCC,-0.0827
10,GCACGGTA,-0.04
11,CTCTTAAC,-0.0542
12,ACGAGAAC,-0.149
13,GCCTGGGA,-0.135
14,ACTGATCG,-0.206
15,ACGGCAGA,0.156
16,CATCGAAC,-0.173
17,AAACTACA,0.0123
18,ATCATGTG,-0.135
19,AACTTAGT,0.0161
20,GGCTCCCC,0.0286
21,ATAATGCG,0.0595
22,CGGGATAC,0.32
23,AGTTCCTA,0.00074
24,GCCATGGC,-0.361
25,ACAGAAGC,-0.153

row,Sequence,PBM E-score
1,CTCCCAGA,-0.263
2,AGCACCCA,-0.0678
3,ATACGAAC,-0.0799
4,GAGGGGGA,-0.185
5,CGCACGAC,-0.0583
6,ATTGCACA,-0.151
7,CGGGGAGC,0.179
8,GAGAAGTA,-0.129
9,ACGCACAC,-0.0434
10,AGTGTGAT,-0.0318
11,ATAAGCGA,0.0555
12,CGTCACAG,-0.126
13,CCTGTACC,-0.0584
14,AATGAGAA,-0.0737
15,CCGACAAC,0.283
16,CCTGTCAC,-0.0895
17,AGTCGAAT,-0.0922
18,ACCCACCT,-0.0657
19,AACCGTTC,0.284
20,AGGTGGGC,-0.176
21,GTGAAGTA,-0.0455
22,CCCGAGGG,0.404
23,TATAACAA,-0.0542
24,ATTTCGTC,-0.103
25,CTAAACGA,-0.147

row,Sequence,PBM E-score
1,CTTCTCGA,-0.318
2,GACCTAAC,0.00842
3,AAGTGTGT,-0.259
4,GGAAAGGA,0.205
5,AACGCCGG,0.213
6,ACGCGATC,0.0854
7,ATGCCCAA,-0.0456
8,GCCGATGA,0.295
9,GGCTTCAC,0.0049
10,GAGACACC,-0.122
11,AGTCTGAT,-0.142
12,CGAGGACA,0.0556
13,ATCTGGTG,-0.152
14,CATATAGA,-0.244
15,ATGTTGTA,-0.196
16,AGCTGCTG,-0.233
17,CCGCCGGC,0.314
18,CCGTCAGA,0.0622
19,ACACAAAA,0.0149
20,CTTTCCCC,0.12
21,ACTGAAAC,0.028
22,ACAGTAGT,-0.171
